Reference: the BET-seq Pho4 binding data (Le et al. 2018)
The other results are listed elsewhere or left out. These are noisy estimates, calculated here from bound and input reads.

target: T1, Pho4 (S. cerevisiae) (UniProt P07270); assay: relative binding free energy (BET-seq); higher = weaker binding; settings: reference: library average
T1 sequence: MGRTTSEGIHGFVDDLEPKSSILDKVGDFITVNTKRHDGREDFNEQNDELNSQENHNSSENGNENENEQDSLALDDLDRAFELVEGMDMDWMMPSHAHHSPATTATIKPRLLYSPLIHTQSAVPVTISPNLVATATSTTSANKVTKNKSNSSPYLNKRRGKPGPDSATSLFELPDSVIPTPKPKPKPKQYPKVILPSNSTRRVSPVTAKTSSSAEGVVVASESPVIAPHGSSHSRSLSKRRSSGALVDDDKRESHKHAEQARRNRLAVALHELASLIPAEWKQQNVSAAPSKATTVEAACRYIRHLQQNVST

Sequence | relative binding free energy
TCGGTCACGTGTTTGG | 0.14 kcal/mol
TAGGTCACGTGGGGAG | 0.03 kcal/mol
TGACTCACGTGGGGTC | 0.01 kcal/mol
AATGACACGTGAGTGG | 0.26 kcal/mol
TGGCACACGTGTGTGC | 0.01 kcal/mol
GCTTGCACGTGCGTTT | 0.01 kcal/mol
GGTGTCACGTGTGGTC | 0.26 kcal/mol
TTGTTCACGTGTGGCG | 0.26 kcal/mol
TGATACACGTGCTAGG | 0.04 kcal/mol
TATAGCACGTGATAGG | -0.03 kcal/mol
GTCGGCACGTGCTGTT | 0.01 kcal/mol
CGATCCACGTGTTGGT | 0.06 kcal/mol
TGGCTCACGTGCGTGG | 0.06 kcal/mol
GTGTCCACGTGCAGTG | 0.01 kcal/mol
TAAATCACGTGGAATT | 0.19 kcal/mol
GCGGTCACGTGGTGTG | 0.05 kcal/mol
GTGATCACGTGGGTTA | -0.02 kcal/mol
TGATGCACGTGAGTCG | 0.13 kcal/mol
ACCGTCACGTGTGTGG | 0 kcal/mol
GAGGGCACGTGGTTAG | -0.04 kcal/mol
TGCGCCACGTGTGGAG | -0.01 kcal/mol
AAGGGCACGTGGTGCT | -0.16 kcal/mol
GAGGGCACGTGGGAGA | -0.11 kcal/mol
AGGAACACGTGGGTCG | -0.23 kcal/mol
TAACTCACGTGATTGT | 0.27 kcal/mol
TTATACACGTGGATGT | -0.13 kcal/mol

Sequence | relative binding free energy
GTGACCACGTGGGGTT | -0.02 kcal/mol
GTAGACACGTGATTAT | 0.25 kcal/mol
AGTGGCACGTGTAAAG | 0 kcal/mol
TCAGTCACGTGCTTTT | 0.04 kcal/mol
TTAAGCACGTGCTAGG | -0.17 kcal/mol
GGCATCACGTGTTGAG | 0.19 kcal/mol
TTAGGCACGTGTCGTC | -0.01 kcal/mol
ATTGTCACGTGGGGAC | 0.01 kcal/mol
GTGTTCACGTGGATTC | 0.29 kcal/mol
GTCTACACGTGGTTGA | 0.1 kcal/mol
TATATCACGTGATGTA | 0.12 kcal/mol
TCATACACGTGCGGTT | 0.09 kcal/mol
GTCTTCACGTGTGGTA | 0.33 kcal/mol
ATGGGCACGTGTTATA | -0.09 kcal/mol
TGCGACACGTGAGGGT | 0.13 kcal/mol
GGTCGCACGTGAGATG | 0.27 kcal/mol
TTCTTCACGTGTAAGT | 0.27 kcal/mol
GGGGCCACGTGAGTAG | 0.18 kcal/mol
ATGGGCACGTGTGGAA | -0.14 kcal/mol
TCCTTCACGTGGGGGG | 0.12 kcal/mol
TGGTCCACGTGGGCAG | -0.25 kcal/mol
TTAGTCACGTGCCGGG | 0.05 kcal/mol
GGTGCCACGTGGGTTA | -0.15 kcal/mol
CCTAACACGTGGTGGG | 0.11 kcal/mol
ATTGTCACGTGAGCTT | 0.32 kcal/mol
ATTCTCACGTGTAGGT | 0.24 kcal/mol

Sequence | relative binding free energy
ATTGGCACGTGCGGTA | -0.2 kcal/mol
CGGTGCACGTGAGCAG | 0.25 kcal/mol
TAAATCACGTGTAAGG | 0.22 kcal/mol
TACATCACGTGGGTTA | -0.15 kcal/mol
CGTTTCACGTGGGTTC | 0.18 kcal/mol
GCGGACACGTGGTTTG | -0.09 kcal/mol
GTCGTCACGTGTGTAT | 0.16 kcal/mol
GGAGGCACGTGATGTA | -0.05 kcal/mol
GGGTGCACGTGTTTTG | 0.04 kcal/mol
GGGCGCACGTGTGATT | 0.08 kcal/mol
GGATGCACGTGGTAAT | -0.06 kcal/mol
AGGAGCACGTGTATAG | -0.07 kcal/mol
ATTTGCACGTGGGGTT | 0 kcal/mol
GATGTCACGTGTAGTA | 0.06 kcal/mol
TTTGCCACGTGGGGTG | -0.17 kcal/mol
CGTTACACGTGGGGGC | 0.01 kcal/mol
ACTGTCACGTGTGGTT | 0.1 kcal/mol
CTAGGCACGTGGTTGA | -0.25 kcal/mol
GGCTTCACGTGTTGGT | 0.22 kcal/mol
TTGTCCACGTGTGTTT | 0.14 kcal/mol
TATGCCACGTGAAGGT | 0.13 kcal/mol
AGGTACACGTGACGGT | 0.16 kcal/mol
TCTGTCACGTGGTCTG | -0.15 kcal/mol
GATTACACGTGAGGGT | 0.32 kcal/mol
TAGTCCACGTGATGTT | 0.26 kcal/mol
ATTAACACGTGGGTTA | -0.02 kcal/mol

Sequence | relative binding free energy
AGGTCCACGTGGGAAT | 0.06 kcal/mol
CGGGGCACGTGTAGTA | -0.18 kcal/mol
CGGGACACGTGAGGGG | 0.21 kcal/mol
TGTACCACGTGTTTGA | -0.06 kcal/mol
TTGTGCACGTGGGTCA | -0.24 kcal/mol
GCAGGCACGTGCGTTT | 0 kcal/mol
AGTTGCACGTGAAGAG | 0.16 kcal/mol
TTAGTCACGTGATGGT | 0.28 kcal/mol
GACAGCACGTGGTGGG | -0.06 kcal/mol
GGTGTCACGTGACATG | 0.23 kcal/mol
GTTTTCACGTGCAGTT | 0.38 kcal/mol
TGTATCACGTGGCTTG | 0.09 kcal/mol
TGGGGCACGTGTTCGA | -0.03 kcal/mol
TATCTCACGTGTTCAT | 0.31 kcal/mol
CGTTTCACGTGTTTCG | 0.19 kcal/mol
TTGGTCACGTGAATAG | 0.27 kcal/mol
TGGGTCACGTGGGGGT | 0.04 kcal/mol
TTTGTCACGTGATTTC | 0.23 kcal/mol
ATTAGCACGTGTGGCT | -0.15 kcal/mol
CTTTTCACGTGTGCTT | 0.24 kcal/mol
TGGGACACGTGTTTAT | 0.02 kcal/mol
TCTGGCACGTGTAGTA | -0.12 kcal/mol
GGGTCCACGTGCTTGG | -0.08 kcal/mol
TGGGACACGTGGTGCC | 0.01 kcal/mol
GGGGGCACGTGATGAC | -0.04 kcal/mol
AAAGGCACGTGGGCTG | -0.2 kcal/mol

Sequence | relative binding free energy
TTTAGCACGTGAGAAG | 0.1 kcal/mol
CTGGGCACGTGGTAAT | -0.15 kcal/mol
TGTGCCACGTGTAAGT | -0.05 kcal/mol
AGATACACGTGGGGGC | -0.06 kcal/mol
GGTGGCACGTGGTCTA | -0.18 kcal/mol
GTGGTCACGTGTTATA | 0.17 kcal/mol
GTGAGCACGTGGTGCG | -0.13 kcal/mol
GGTTGCACGTGGGCGT | -0.01 kcal/mol
GTGTTCACGTGACTGG | 0.3 kcal/mol
TACGTCACGTGCTTTT | 0.13 kcal/mol
TAGGTCACGTGGCGAG | 0.1 kcal/mol
GGAGTCACGTGGGGAT | 0.13 kcal/mol
TAGTACACGTGGGCTG | 0.03 kcal/mol
AATCGCACGTGGCGGT | 0.06 kcal/mol
TTCAGCACGTGGTTTT | -0.04 kcal/mol
AGAGTCACGTGTTGAG | 0.13 kcal/mol
AATATCACGTGTGTTG | 0.09 kcal/mol
TATGACACGTGGTTAA | -0.13 kcal/mol
GGGGCCACGTGTGGTT | 0 kcal/mol
ATGGTCACGTGAGGAG | 0.31 kcal/mol
GTGGGCACGTGATCAT | 0.05 kcal/mol
GTGTTCACGTGAGTTA | 0.46 kcal/mol
AAGGTCACGTGCGTTA | 0.06 kcal/mol
GTTTGCACGTGGAACT | 0.06 kcal/mol
AACGGCACGTGTTGTT | -0.03 kcal/mol
ATGGTCACGTGCGTAA | 0.05 kcal/mol

Sequence | relative binding free energy
TTGTGCACGTGGCAGA | 0 kcal/mol
GGATGCACGTGATCGG | 0.14 kcal/mol
CTGGACACGTGGGCTT | -0.08 kcal/mol
GGCATCACGTGGCGTA | 0.32 kcal/mol
TGTTTCACGTGAGCGA | 0.24 kcal/mol
TCAGTCACGTGGTAGT | 0.06 kcal/mol
GGTGACACGTGGGGCG | -0.16 kcal/mol
GAGTGCACGTGATATT | 0.19 kcal/mol
TTGAGCACGTGAGATG | 0.21 kcal/mol
GTTTACACGTGTGTCG | 0.13 kcal/mol
CTTTGCACGTGGGGTG | -0.13 kcal/mol
AAGTGCACGTGGTAGC | -0.07 kcal/mol
GGAGTCACGTGAAAGG | 0.37 kcal/mol
TCTTACACGTGCTGTT | 0.07 kcal/mol
TGACTCACGTGTTATG | 0.22 kcal/mol
TCAGTCACGTGTGTGA | 0.13 kcal/mol
TGGCTCACGTGGTTGA | 0.11 kcal/mol
GTAGACACGTGGGTGA | -0.15 kcal/mol
AGTGTCACGTGCTTTT | -0.05 kcal/mol
TGGTTCACGTGGCTAT | 0.15 kcal/mol
TTAAGCACGTGTCAGG | -0.08 kcal/mol
TGCTTCACGTGTGAGA | 0.29 kcal/mol
GGAGTCACGTGGAGTA | 0.01 kcal/mol
ATGTGCACGTGGGGTG | -0.22 kcal/mol
GCTTGCACGTGAGGGC | 0.23 kcal/mol
GTGTACACGTGGGCAA | -0.02 kcal/mol

Sequence | relative binding free energy
GTTAACACGTGCGGGT | 0.02 kcal/mol
GTTTGCACGTGTATCT | 0.16 kcal/mol
GTAGTCACGTGAGAAT | 0.29 kcal/mol
TAGTTCACGTGGTCGA | 0.11 kcal/mol
TTTTGCACGTGAAGTA | 0.24 kcal/mol
GGGGCCACGTGCGTTG | -0.17 kcal/mol
GCGGTCACGTGTTTGG | 0.19 kcal/mol
CGGTCCACGTGGGAGG | -0.15 kcal/mol
GAATTCACGTGTATAG | 0.31 kcal/mol
TTTGCCACGTGATTGT | 0.15 kcal/mol
TTTTTCACGTGAATCT | 0.25 kcal/mol
TGGCTCACGTGAGTTG | 0.22 kcal/mol
TTATACACGTGGTTCG | -0.12 kcal/mol
TGACTCACGTGAGGGT | 0.24 kcal/mol
GTTGGCACGTGTTGCG | -0.03 kcal/mol
TTTTGCACGTGTGTGC | 0.07 kcal/mol
GCAGGCACGTGAGTGT | 0.14 kcal/mol
TGGTTCACGTGTATCC | 0.3 kcal/mol
AGTCACACGTGTGATG | 0.18 kcal/mol
GTATGCACGTGTAGGA | 0.12 kcal/mol
GGTTACACGTGGGTCA | -0.05 kcal/mol
CATTTCACGTGGGCGT | 0.26 kcal/mol
TGGAGCACGTGGGATC | -0.02 kcal/mol
AGTCGCACGTGGGAGT | -0.07 kcal/mol
TAGAACACGTGAGCGG | 0.35 kcal/mol
TGTCTCACGTGTATAT | 0.28 kcal/mol

Sequence | relative binding free energy
GTGATCACGTGGCGAT | 0 kcal/mol
TATGTCACGTGGTCTA | -0.13 kcal/mol
TTATTCACGTGTGAAA | 0.4 kcal/mol
CGGCGCACGTGTTGTG | -0.15 kcal/mol
TGCGGCACGTGTGAAT | -0.06 kcal/mol
GGTGACACGTGATTGG | 0.09 kcal/mol
TTTTCCACGTGTAGGG | 0.02 kcal/mol
TGTGGCACGTGCAGCG | -0.15 kcal/mol
TCGTACACGTGGGTAT | 0.02 kcal/mol
CGGCGCACGTGTTGGT | -0.14 kcal/mol
AACGGCACGTGGGTAG | -0.18 kcal/mol
GAGAGCACGTGTGGAT | -0.04 kcal/mol
CTATGCACGTGTGGGT | -0.08 kcal/mol
CGATGCACGTGAGGAG | 0.18 kcal/mol
GAGGACACGTGAGGAT | 0.42 kcal/mol
AGGGTCACGTGAGAAT | 0.26 kcal/mol
ATGGGCACGTGTGCTT | 0.01 kcal/mol
TTGTGCACGTGCTGTG | -0.04 kcal/mol
GGGGCCACGTGGTCTG | -0.34 kcal/mol
TAGTTCACGTGGGGAC | 0.28 kcal/mol
ATTTGCACGTGGCCTT | -0.12 kcal/mol
GAGGGCACGTGATAGG | 0.07 kcal/mol
AGCTTCACGTGGGCGC | 0.45 kcal/mol
GCTGGCACGTGTTGTA | -0.15 kcal/mol
TGCTGCACGTGAGGTC | 0.19 kcal/mol
CAGGACACGTGAGTTG | 0.28 kcal/mol

Sequence | relative binding free energy
CTGTGCACGTGTTGAT | -0.2 kcal/mol
TTCGTCACGTGGGCAT | -0.03 kcal/mol
GCGTTCACGTGTATTA | 0.3 kcal/mol
TCGTTCACGTGAATTA | 0.48 kcal/mol
AGATACACGTGGTAGT | 0 kcal/mol
TAGGTCACGTGAGGTT | 0.29 kcal/mol
GTGGTCACGTGTAGAA | 0.22 kcal/mol
GTTAACACGTGGGGGG | -0.1 kcal/mol
TAGAACACGTGTGGGG | 0.08 kcal/mol
GTAGACACGTGGTTTA | -0.06 kcal/mol
AGAGGCACGTGGGACG | -0.26 kcal/mol
TTTAGCACGTGTGCAG | -0.16 kcal/mol
TTTTGCACGTGGCGTC | -0.15 kcal/mol
GGGTTCACGTGTTTGT | 0.36 kcal/mol
AGTAGCACGTGAGTTT | 0.28 kcal/mol
TATATCACGTGTGCGG | 0.06 kcal/mol
TAGTGCACGTGTAAAT | -0.13 kcal/mol
AATGTCACGTGTCATT | 0.04 kcal/mol
TTATACACGTGGTAGA | 0.03 kcal/mol
TCGGACACGTGAGGAG | 0.22 kcal/mol
TGGCACACGTGGTTTG | 0.06 kcal/mol
TGGTTCACGTGAATGC | 0.32 kcal/mol
